Measured values published in the antibiotic and cytotoxicity screens of Wong et al. (2023).
The other results are listed elsewhere or left out.

system: S. aureus RN4220; assay: growth inhibition call (relative growth <= 0.2); conditions: 50 µM

Growth inhibition call, inactive:
C[C@@H]1CN([C@H](C)CO)C(=O)c2cccc(NC(=O)c3cnccn3)c2O[C@@H]1CN(C)S(=O)(=O)c1cccs1
CN(C)CC#Cc1ccc([C@@H]2[C@H]3CN(C(=O)CN(C)C)CCCCN3[C@H]2CO)cc1
CCO/C(O)=C1/C(=O)CN(C)C1=O
Cc1ccc(S(=O)(=O)Nc2cccc3c2O[C@H](CN(C)Cc2ccc(Cl)c(Cl)c2)[C@@H](C)CN([C@@H](C)CO)C3=O)cc1
C[C@@H]1CN([C@@H](C)CO)C(=O)Cc2cc(NS(=O)(=O)c3ccc(Cl)cc3)ccc2O[C@H]1CN(C)C(=O)Nc1ccc(C(F)(F)F)cc1
COC(=O)[C@@]12OC[C@]34[C@H]([C@@H](O)[C@@H]1O)[C@@]1(C)CC(=O)C(=O)[C@H](C)[C@@H]1C[C@H]3OC(=O)[C@H](OC(=O)/C=C(\C)C(C)C)[C@@H]24
Cc1noc(C)c1S(=O)(=O)N(C)C[C@H]1Oc2ccc(NC(=O)NC3CCCCC3)cc2CC(=O)N([C@@H](C)CO)C[C@H]1C
COc1ccc(NC(=O)Nc2ccc3c(c2)C(=O)N([C@@H](C)CO)C[C@@H](C)[C@H](CN(C)C(=O)Nc2c(C)noc2C)OCCCC[C@@H](C)O3)cc1
COCC#Cc1ccc2c(c1)O[C@@H](CN(C)C(=O)CN(C)C)[C@@H](C)CN([C@@H](C)CO)S2(=O)=O
Cc1ccc(S(=O)(=O)Nc2ccc3c(c2)C(=O)N([C@H](C)CO)C[C@H](C)[C@H](CN(C)Cc2ccc(C(F)(F)F)cc2)OCCCC[C@H](C)O3)cc1
